According to PubChem BioAssay AID652104 (National Center for Advancing Translational Sciences (NCATS), 2013):
Where “and” joins values, the source holds several entries; their conditions need not be identical. Equal values may be shown once. Among all 410,000 compounds or so, about 7,200 (1.8%) were called active. The inconclusive results got no clear call from the source; some entries with a clear call stand among them for comparison. The call rests on the fitted dose curve; in most records, active means well fitted activation curve with a large enough effect; inconclusive means small, poorly fitted or top-dose-only effect, or another doubt; inactive means no such curve, though single readings can be large or run the other way. Where the call is inconclusive, the potency comes from a doubtful curve fit.

assay: qHTS of TDP-43 Inhibitors; settings: TDP-43 expressing yeast growth rescue, BacTiter-Glo, 24 h; growth rescue (activation): at 46.1 µM (top of the series) unless noted; further: nearly all actives have a fitted effect of over 50% in size; on growth rescue (activation): % of control where 0% means no effect
How it was run: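 Growth rescue of TDP-43-toxic yeast measured as ATP luminescence (BacTiter-Glo). Cells grown to mid-log in raffinose, induced in galactose at OD600=0.02, exposed to compound 24 hr at 30 deg C.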
Potency means the concentration at half of the fitted maximal effect; tags describe the fitted curve by direction and shape.

Row | Structure (SMILES) | Potency | growth rescue (activation)
1 | CCOCCc1nn2c(=O)cc(COC(=O)c3ccccc3NC(=O)c3ccccc3F)nc2s1 | inconclusive: 11.2 µM [activator, partial curve] | 
2 | CCS(=O)(=O)c1nc(S(=O)(=O)c2ccc(C)cc2)c(N2CC(C)OC(C)C2)s1 (centres undefined) | inconclusive: 35.5 µM [activator, partial curve, poor fit] | 
3 | Nc1cc(S(=O)(=O)Nc2ccc(Br)cc2)ccc1Cl | inconclusive: 12.6 µM [activator, partial curve] | 
4 | O=C(/C=C/c1ccc(Cl)cc1Cl)OCC(=O)N1CCCC1 | inconclusive: 35.5 µM [activator, single point] | 
5 | CC(C)NC(=S)NN(c1ccccc1)c1ccccc1 |  | inactive: 2.91%
6 | COc1ccc(CCNC(=S)Nc2cccc3ccccc23)cc1 | inconclusive: 22.4 µM [activator, partial curve] | 
7 | O=C(COC(=O)C1(c2ccccc2F)CCCC1)NCc1ccc2c(c1)OCO2 | active: 15.8 µM | 
8 | S=c1[nH]nc(-c2ccc(Br)cc2)n1Cc1ccco1 | inconclusive: 12.6 µM [activator, partial curve] | 
9 | Cc1cccc(CNS(=O)(=O)c2ccc(-c3ccc(=O)[nH]n3)s2)c1 | inconclusive: 35.5 µM [activator, single point] | 
10 | Cc1ccc(NC(=S)NNC(=O)c2cccc([N+](=O)[O-])c2)cc1Cl | inconclusive: 12.6 µM [activator, partial curve] | 
11 | CCOC(=O)Cc1cc(C(=O)Nc2ccc(Br)cc2)sc1-c1ccc(C)cc1 |  | inactive: 16.3%
12 | Cc1ccc(S(=O)(=O)/N=C(/Nc2cccc(O)c2)c2ccccc2)cc1 |  | inactive: -7.7%
13 | S=C(NCCc1ccccc1)Nc1ccc(Nc2ccccc2)cc1 | inconclusive: 22.4 µM [activator, single point] | 
14 | COc1cc(C#Cc2c(-c3cncn3C)n(C)c3ccc(-c4ccc(OC)c(OC)c4)cc23)cc(OC)c1 | inconclusive: 31.6 µM [activator, single point] | 
15 | CN(C)CCN1CCN(C2CN(Cc3cn(Cc4cccc(Cl)c4)nn3)S(=O)(=O)C2)CC1 (centres undefined) | inconclusive: 0.1 µM [activator, full curve, poor fit] | 
16 | C/C(C/C(C)=C1/SC(=S)NC1=O)=C1\SC(=S)NC1=O |  | inactive: -3.01%
17 | CCN1C(=O)[C@H]2[C@@H](c3ccc(-c4ccc5c(c4)OCO5)c(OC)c3)N[C@@](Cc3ccccc3)(C(=O)OC)[C@H]2C1=O |  | inactive: 2.22%
18 | CCCSc1ncc(Cl)c(C(=O)Nc2ccc(S(=O)(=O)N3CCCC(C)C3)cc2)n1 (centres undefined) |  | inactive: 22.4%
19 | C=CCn1c(SCC(=O)N2CCN(C(=O)c3ccco3)CC2)nc2sc(CC)cc2c1=O |  | inactive: -11.9%
20 | Cc1cccc(N2CCN(C(=O)c3ccc4nc(N5CCC(C)CC5)sc4c3)CC2)c1C |  | inactive: 8.76%
21 | O=C(/C=C/c1c(Cl)cccc1Cl)N1CCN(c2ncccn2)CC1 | active: 11.2 µM | 
22 | NC(=O)c1cc(-c2ccccc2)nc(Oc2ccccc2)n1 | inconclusive: 14.1 µM [activator, single point] | 
23 | Nc1cc(=O)[nH]c(=O)n1Cc1ccccc1 | inconclusive: 2.51 µM [activator, full curve, poor fit] | 

Row | Structure (SMILES) | Potency | growth rescue (activation)
24 | COc1ccc(NS(=O)(=O)c2ccc(Cl)s2)cn1 | inconclusive: 15.8 µM [activator, partial curve] | 
25 | Cn1ncc(Br)c1C(=O)N1CCc2ccccc21 | inconclusive: 7.94 µM [activator, partial curve, poor fit] | 
26 | CC(=O)N1CCc2c(sc3c2c(=O)n(-c2cccc(Cl)c2C)c(=O)n3Cc2ccccc2C)C1 | inconclusive: 35.5 µM [activator, single point] | 
27 | CN(Cc1ccc(Cl)cc1)C(c1cc2ccccc2o1)c1nnnn1C(C)(C)C (centres undefined) | inconclusive: 4.47 µM [activator, full curve, poor fit] | 
28 | COc1ccc2c(CNCCc3ccccc3C)c(C(=O)O)n(Cc3ccccc3C)c2c1 |  | inactive: 12.8%
29 | COC1OC(c2ccccc2)=C(c2ccc(C(N)=O)cc2)c2ccc(F)cc21 (centres undefined) |  | inactive: 0.709%
30 | CCN(Cc1ccccc1)c1ccc(/C=N/NS(=O)(=O)c2cccc([N+](=O)[O-])c2)cc1 | inconclusive: 0.891 µM [activator, full curve, poor fit] | 
31 | Cc1ccc(C)c(CNS(=O)(=O)c2ccc3c(c2)C(C)(C)C(=O)N3C)c1 | inactive and inconclusive: 316 nM [activator, full curve, poor fit] | 
32 | Cc1ccc(C(C)C)c(OCC(=O)NNC(=O)C(C(C)C)N2C(=O)c3ccccc3C2=O)c1 (centres undefined) | inconclusive: 35.5 µM [activator, single point] | 
33 | Cc1ccc(C)c(Cn2c(=O)n(CC3CCC(C(=O)N4CCOCC4)CC3)c(=O)c3sccc32)c1 (centres undefined) |  | inactive: 25.3%
34 | CN(C(=O)c1ccc(-c2nn(C)c(=O)c3ccccc23)cc1)c1ccccc1 | active: 14.1 µM | 
35 | CCOc1cc(N2CCOCC2)c(OCC)cc1NC(=O)c1ccco1 | inconclusive: 14.1 µM [activator, partial curve] | 
36 | CCCc1cc(=O)oc2c3c(c4c(c12)OC(C)(C)C=C4)OC(C)C(C)C3O (centres undefined) | inconclusive: 28.2 µM [activator, single point] | 
37 | COc1ccc(S(=O)(=O)c2c(N)n(Cc3ccco3)c3nc4ccccc4nc23)cc1 |  | inactive: -0.439%
38 | COC(=O)c1cn(CCC#N)nc1-c1ccc2ccccc2c1 | inconclusive: 12.6 µM [activator, single point] | 
39 | CCCCNC(=S)NC(=O)c1ccc(Cl)cc1Cl | inconclusive: 10 µM [activator, partial curve] | 
40 | COc1cccc(NC(=S)NC(=O)c2cccnc2)c1 | inconclusive: 7.94 µM [activator, single point] | 
41 | Cc1ccc(CSCC(=O)N(C)CC(=O)Nc2c(Cl)cccc2Cl)cc1 |  | inconclusive: 30.4% [activator]
42 | CCOc1ccc(CCNC(=O)Cn2nc(C)n3cccc3c2=O)cc1OCC |  | inactive: 8.56%
43 | Fc1cccc(Cl)c1CSc1nnc(CNc2ccccc2)o1 | active: 17.8 µM | 
44 | Cn1cc(-c2cc3n(n2)CCC(=O)N3CCCC(=O)NCc2ccc(F)cc2)c2ccccc21 | inconclusive: 28.2 µM [activator, partial curve] | 
45 | CCOC(=O)c1ccccc1Nc1nc2ccc(C)cc2n2nnnc12 |  | inactive: 21.5%
46 | Cc1ccc2cc(C)c3nnc(SCc4ccc(C(=O)O)cc4)n3c2c1C | inconclusive: 31.6 µM [activator, single point] | 

Row | Structure (SMILES) | Potency | growth rescue (activation)
47 | O=C1c2ccccc2C2N1CCCN2C(=O)c1sc2ccccc2c1Cl (centres undefined) | active: 17.8 µM | 
48 | O=c1[nH][nH]c2c1[C@H](CCc1cccc(Cl)c1)O[C@H](CCc1ccccc1)C2 |  | inactive: 21.5%
49 | O=C(Cc1ccc(Cl)cc1)Nc1ccc(NC(=O)c2ccccc2)cc1 |  | inactive: -12.6%
50 | C=CCCCCCCCCc1nc(SCC(C)=O)n[nH]1 | inconclusive: 35.5 µM [activator, single point] | 
51 | CCCCn1c(N)c(N(CCC(C)C)C(=O)c2ccc(N3CCCC3=O)cc2)c(=O)[nH]c1=O |  | inconclusive: 34.6% [activator]
52 | CCOC(=O)CC(=O)CSc1ncnc2c1nnn2-c1ccc(OC)cc1 | inconclusive: 25.1 µM [activator, partial curve] | 
53 | CCC(=O)N1N=C(c2ccc(Cl)cc2)CC1c1ccco1 (centres undefined) | inconclusive: 15.8 µM [activator, single point] | 
54 | COc1ccc([N+](=O)[O-])c(C=CC(=O)c2ccccn2)c1 | active: 2.82 µM | 
55 | Cc1ccc(NC(=O)CSc2nc3nc(C)c(Cc4ccccc4)c(C)n3n2)cc1 | inconclusive: 22.4 µM [activator, partial curve, poor fit] | 
56 | CCOC(=O)c1ccc(NS(=O)(=O)c2c(C)nc3sccn3c2=O)cc1 | inconclusive: 22.4 µM [activator, partial curve] | 
57 | CCc1ccc(S(=O)(=O)N/N=C\c2ccc([N+](=O)[O-])o2)cc1 | inconclusive: 17.8 µM [activator, partial curve] | 
58 | Cc1ccc(NC(=O)c2cc3ccccc3o2)cc1Cl | inconclusive: 3.55 µM [activator, full curve] | 
59 | Cc1ccc(NC(=O)c2ccccc2)cc1 | inconclusive: 14.1 µM [activator, single point] | 
60 | C/C(=C\C(=O)OCCCCCCCCC(=O)O)C[C@@H]1OC[C@H](C[C@@H]2O[C@H]2[C@@H](C)[C@H](C)O)[C@@H](O)[C@H]1O | inconclusive: 20 µM [activator, single point] | 
61 | CCN(CC)c1ccc(/C=N/NC(=O)C2CC2)cc1 | inconclusive: 3.16 µM [activator, single point] | 
62 | CN(C)c1ccc(/C=N/NC(=O)COc2ccccc2)cc1 | inconclusive: 11.2 µM [activator, partial curve] | 
63 | CC(=O)N1CCc2cc(S(=O)(=O)NC(Cc3ccccc3)C(=O)NCc3ccccc3)ccc21 (centres undefined) |  | inactive: 12%
64 | Cc1ccc(C)c(NC(=O)CN2C(=O)CCc3cc(S(=O)(=O)N4CCCCC4)ccc32)c1 |  | inactive: -3.34%
65 | C=CCn1c(C)cc(C(=O)CSc2nnc(Cc3ccccc3)o2)c1C | active: 2.51 µM | 
66 | Cc1ccc(Sc2ccc(NC(=O)CCl)cc2)c(C)c1 | active: 11.2 µM | 
67 | COc1ccc(CCNC(=O)CCCc2ccccc2)cc1 | inconclusive: 6.31 µM [activator, single point] | 
68 | CCN(Cc1nc2cc(Cl)ccc2c(=O)[nH]1)C(=O)c1cc(C2CC2)nn1-c1ccccc1 | inconclusive: 12.6 µM [activator, partial curve] | 
69 | O=C(NCC1CCN(C(=O)c2c(F)c(F)c(F)c(F)c2F)CC1)c1c(F)c(F)c(F)c(F)c1F | active: 12.6 µM | 
